# Measured values: PubChem BioAssay (NCATS)
# Where “and” joins values, the source holds several entries; their conditions need not be identical. Equal values may be shown once. The shares of active, inactive and inconclusive entries below differ from those in the screen. Where the call is inconclusive, the potency comes from a doubtful curve fit. Calls of active or inactive are those of the source. The call rests on the fitted dose curve; in most records, active means well fitted cell-killing curve with a large enough effect; inconclusive means small, poorly fitted or top-dose-only effect; inactive means flat fitted curve, though single readings scatter.
# Assay: Cellular viability qHTS for adrenocortical cancer (ACC) cell line SW-13 (AID 1963989); further: nearly all actives have a fitted effect of over 65% in size;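 on activity (max response): cells grown in serum-free medium with ITS supplement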
# Conditions: SW-13 ACC cells viability, CellTiter-Glo, 48 h; activity (max response): active compounds read low
# Text: PI: Naris Nilubol, MD Surgical Oncology Program, National Cancer Institute (NCI) National Institute of Health (NIH), Bethesda, Maryland Adrenocortical cancer (ACC) is a rare malignancy with poor survival outcomes and few treatment options. Currently, mitotane is the only FDA-approved therapy for ACC. Although adjuvant radiation therapy is rarely utilized, it has the potential to improve survival in select cases. Through a quantitative high-throughput drug screen (qHTS), we identified auranofin (AF), a thioredoxin reductase (TXNRD) inhibitor, as a promising candidate drug. This study aims to evaluate whether AF can enhance the efficacy of radiation therapy in the treatment of ACC. Two human ACC cell lines, SW-13 and NCI-H295R, were screened using the National Center for Advancing Translational Sciences (NCATS) Pharmaceutical Collection (NPC) and the Mechanism Interrogation PlatE (MIPE) library (~4,991 compounds). CellTiter-Glo (Cat # G7570, Promega, Madison, WI) was utilized to measure cell viability. Described herein are the results of the corresponding viability assay.
# PROTOCOL TABLE (as described by Inglese J, Shamu CE and Guy RK. 2007) SEQUENCE No. (e.g., 1, 2, 3, etc.); […] (e.g., Cells, Incubation, Reagent, etc.); VALUE; DESCRIPTION. 1; Cells; 5 uL; white, solid-bottom, 1536-well tissue-culture treated plates. 2; Time; overnight culture at 37C with 5% CO2. 3; Compounds and control; 23 nL; Kalypsis pin tool (Wako USA) equipped with a 1536-well pin head to transfer to the assay plates. 4; Time; 48 hours; 37C with 5% CO2. 5; Reagent; 4 uL; CellTiter-Glo luminescent substrate mix. 6; Time; 20 min at room temperature. 7; Detection; Luminescence; ViewLux plate reader NOTES (numbers refer to Sequence numbers above) 1. SW13 cells were harvested from a T175 flask and resuspended in ITS-supplemented DMEM serum-free medium at a concentration of 300 000 cells/mL. Then 5 uL of resuspended cells were dispensed into each well of white, solid-bottom, 1536-well tissue-culture-treated plates using a multidrop combi dispenser. The plates were covered with stainless steel gasket lids. 2-3. The plates were cultured overnight at 37C with 5% CO2. Twenty-three nL of compounds (eight selected concentrations from the NPC / MIPE) or positive control (10 mM stock of bortezomib) in DMSO was transferred to each well of the assay plate using a pin tool (Kalypsys, San Diego, CA, USA). The final concentration of the compounds in the 5 uL assay volume ranged from 0.5 nM to 46 uM. 4-6. After 48 hours of incubation at 37C and 5% CO2, 4 uL of CellTilter-Glo luminescent substrate mix (Promega, Madison, WI, USA) was added to each well. Then the plates were incubated for 20 minutes at room temperature. 7. After incubation, luminescence was measured using a ViewLux plate reader (PerkinElmer, Waltham, MA, USA) with a clear filter was used to measure the number of metabolically competent cells. To determine compound activity in the qHTS assay, the titration-response data for each sample was plotted and modeled by a four-parameter logistic fit yielding IC50 and efficacy (maximal response) values. […] REFERENCES: Inglese J, Shamu CE and Guy RK, Reporting data from high throughput screening of small molecule libraries, Nature Chemical Biology, 2007, 3(8): 438-441. doi.org/10.1038/nchembio0807-438.
# On the % scale 0 is the no-effect control and ±100 the full control effect; tags describe the fitted curve by direction and shape.
Compound,Potency,activity (max response)
O=C(C1CC1)N1CC[C@@H](Cc2n[nH]c(=O)n2-c2ccc(-c3ccc4occc4c3)cc2)C1,"inconclusive: 0.178 µM [cytotoxic, full curve]",
CC(O)(C#Cc1ccc2c(c1)N(c1nc(N)ncc1Cl)CC2)c1nccs1 (stereo not given),"inconclusive: 22.4 µM [cytotoxic, single point]",
O=C(NC1CC1)c1cccc(-c2ccc3c(NC(=O)C4CC4)n[nH]c3c2)c1,active: 3.55 µM,
CNc1nccc(-c2cccnc2Oc2cc(C(=O)Nc3cccc(C(F)(F)F)c3)ccc2C)n1,"inconclusive: 4.47 µM [cytotoxic, partial curve]",
CCCCOc1ccc(CC(=O)NO)cc1,"inconclusive: 31.6 µM [cytotoxic, single point]",inactive: -10.9%
CCOC(=O)C1=CCCCC1S(=O)(=O)Nc1ccc(F)cc1Cl (stereo not given),"inconclusive: 28.2 µM [cytotoxic, partial curve, poor fit]",
CC(C)Cc1ccc(C(C)C(=O)O)cc1 (stereo not given),,inactive: 8.32% and inactive: 2.38%
CC(CCc1ccc2c(c1)OCO2)NN (stereo not given),,inactive: 9.04%
COc1ncnc(NS(=O)(=O)c2ccc(N)cc2)c1OC,,inactive: -3.79% and inactive: 4.29%
CC1=C(/C=C/C(C)=C/C=C/C(C)=C/C(=O)Nc2ccc(O)cc2)C(C)(C)CCC1,"inconclusive: 3.16 µM [cytotoxic, single point]",
CN1CC[C@@H](c2c(O)cc(O)c3c(=O)cc(-c4ccc(C(F)(F)F)cc4Cl)oc23)[C@@H]1CO,"inconclusive: 35.5 µM [cytotoxic, single point]",
COc1cc2c3c(n(CCCn4ccnc4)c(=O)c2cc1OC)-c1cc2c(cc1C3=O)OCO2,active: 0.0316 µM,
CC(=O)c1ccc2c(c1)N(CCCN1CCC(CCO)CC1)c1ccccc1S2,"inconclusive: 16.4 µM [cytotoxic, single point]",
Oc1ccc(Nc2nc(-c3ccc(Cl)cc3)cs2)cc1,"inconclusive: 28.2 µM [cytotoxic, single point]",
CCN1CCCC(OC(=O)C(c2ccccc2)c2ccccc2)C1 (stereo not given),,inactive: -12.5%
Cc1cccc(-c2nn(C(=S)Nc3ccccc3)cc2-c2ccnc3ccccc23)n1,"inconclusive: 31.6 µM [cytotoxic, partial curve, poor fit]",
Cc1cc(C(=O)NOCCO)c(Nc2ccc(I)cc2F)n(C)c1=O,"inconclusive: 1 µM [cytotoxic, partial curve]",
CNC(=O)Cn1cc(-c2ccc3c(c2)C(F)CC32NC(=O)N(CC(=O)N(Cc3ccc(F)cc3)[C@@H](C)C(F)(F)F)C2=O)cn1 (stereo not given in full),"inconclusive: 1 µM [cytotoxic, full curve]",
Cc1ccn(-c2ccc(-c3ncco3)cc2)c(=O)c1-c1ccc2nc(N)ncc2c1,"inconclusive: 17.8 µM [cytotoxic, partial curve]",
CC(C)COCC(CN(Cc1ccccc1)c1ccccc1)N1CCCC1 (stereo not given),active: 4.11 µM and active: 28.2 µM,

Compound,Potency,activity (max response)
CNC(=O)c1cccc(-c2ccc3c(N4CCOC[C@@H]4C)nc(N4CCOC[C@@H]4C)nc3n2)c1,"inconclusive: 0.708 µM [cytotoxic, full curve]",
CCCCCCCC/C=C\CCCCCCCC(=O)NCc1ccc(O)c(OC)c1,active: 3.26 µM,
COc1cc2ncnc(Nc3ccc(O)c(Br)c3)c2cc1OC,active: 3.55 µM,
CO[C@@]1(NC(=O)CSCC#N)C(=O)N2C(C(=O)O)=C(CSc3nnnn3C)CS[C@@H]21,,inactive: 9.84%
S=C(NCc1ccc2c(c1)OCO2)N1CCN(c2ncnc3c2oc2ccccc23)CC1,"inconclusive: 2.51 µM [cytotoxic, full curve]",
CN(C)CCN(C)C(=O)c1ccc(NC(=O)Nc2ccc(-c3nc(N4CCOCC4)c4ccn(CC(F)(F)F)c4n3)cc2)cc1,active: 0.708 µM,
CC(C)(C#N)c1cc(Cn2cncn2)cc(C(C)(C)C#N)c1,"inconclusive: 18.4 µM [cytotoxic, single point]",
O=C(/C=C/C#Cc1cccc(NS(=O)(=O)c2ccccc2)c1)NO,active: 8.02 µM,
C=CCNc1nc(NCC=C)nc(N2CCN(C(c3ccc(F)cc3)c3ccc(F)cc3)CC2)n1,"inconclusive: 9.2 µM [cytotoxic, partial curve]",
Cc1cc2c(s1)Nc1ccccc1N=C2N1CCN(C)CC1,"inconclusive: 18.4 µM [cytotoxic, single point]",
Clc1ccc(Nc2nnc(Cc3ccncc3)c3ccccc23)cc1,"inconclusive: 18.4 µM [cytotoxic, single point] and inconclusive: 28.2 µM [cytotoxic, partial curve, poor fit]",
CCC(=O)N1CCOc2c(cc(-c3cc(OC)cc(OC)c3)cc2C(=O)N[C@H]2CCCN(C)C2)C1,"inconclusive: 31.6 µM [cytotoxic, single point]",
C#CCN[C@@H]1CCc2ccccc21,,inactive: 3.89% and inactive: -12.7%
O=C(O)Cn1c(C(=O)Nc2nc(-c3ccccc3Cl)cs2)cc2ccccc21,"inconclusive: 16.4 µM [cytotoxic, single point]",
CC(=O)Nc1cc(Oc2ccc3c(nc(Nc4ccc(F)cc4F)n3C)c2C)ccn1,"inconclusive: 17.8 µM [cytotoxic, partial curve]",
CC[C@H](NC(=O)[C@H](CS(=O)(=O)CC1CC1)N[C@@H](c1ccc(F)cc1)C(F)(F)F)C(=O)C(=O)NC1CC1,,inactive: -11.3%
CCCCC1C(=O)N(c2ccccc2)N(c2ccccc2)C1=O,,inactive: -21.3%
CC1(C)CCC(C)(C)c2cc(NC(=O)c3ccc(C(=O)O)cc3)ccc21,"inconclusive: 31.6 µM [cytotoxic, single point]",
CN(Cc1cc(Br)cc(Br)c1N)C1CCCCC1,"inconclusive: 23.1 µM [cytotoxic, single point] and inconclusive: 25.1 µM [cytotoxic, partial curve, poor fit]",
